{"source": "PubChem BioAssay AID651820", "about": "(National Center for Advancing Translational Sciences (NCATS), 2012)", "note": "In all, about 340,000 compounds went through this assay and about 12,000 (3.5%) were called active. This list was built around the results that the source calls inconclusive (neither active nor inactive); the mix of calls is not that of the screen. The call rests on the fitted dose curve; in most records, active means well fitted inhibition curve with a large enough effect; inconclusive means small, poorly fitted or top-dose-only effect, or another doubt; inactive means no such curve, though single readings can be large or run the other way. Potencies of inconclusive entries are left out as doubtful fits. On the % scale 0 is the no-effect control and ±100 the full control effect; tags describe the fitted curve by direction and shape.", "data": [{"experiment": "qHTS Assay for Inhibitors of Hepatitis C Virus (HCV)", "conditions": "Huh7.5.1 HCVcc-Cre (HCVcc is cell-culture hepatitis C virus) infection, luciferase reporter, 44 h; activity change, negative = inhibition: at 41.8 µM (top of the series) unless noted", "description": "Hepatitis C virus (HCV) infects about 200 million people in the world. Many infected people progress to chronic liver disease including cirrhosis with a risk of developing liver cancer. To date, there is no effective vaccine for hepatitis C. Current therapy based on interferon is only effective in about half of the patients and is associated with significant adverse effects. The fraction of people with HCV who can complete a successful treatment is estimated to be no more than 10 percent. Recent development of direct-acting antivirals against HCV, such as protease and polymerase inhibitors, is promising but still requires combination with peginterferon and ribavirin for maximal efficacy. In addition, these agents are associated with high rate of resistance and many have significant side effects. Due to the lack of a culture system for infectious HCV, the search for new HCV drugs has been greatly hampered. […] High-throughput screening (HTS) with an infectious HCV system would cover the complete spectrum of potentially druggable targets in all stages of HCV lifecycle, and would have more biological relevance than other cell-based assays. Moreover, targeting several key processes in the viral life cycle may not only increase antiviral efficacy; more importantly, it may also reduce the capacity of the virus to develop resistance to the compound. The goal of this project is to identify novel HCV inhibitors as new therapies for hepatitis C, using a highly sensitive and specific assay platform which is based on a HCV infectious cell culture system established in the laboratory and adapted for high-throughput HCV drug screen. NIH Chemical Genomics Center [NCGC] NIH Molecular Libraries Probe Centers Network [MLPCN] MLPCN Grant: MH095511 Assay Submitter (PI): Jake Liang, NIDDK\nThe assay will start with plating 1,000 cells/well in 3 µL volume and culture for 4 h. Then 23 nL of compounds from the library collection will be added to each well, followed by adding 2.5 µL of HCVcc-Cre virus (~ 0.5 moi) and further cultured for 44 h before the luciferase assay. A volume of 4.5 µL luciferase substrates will be added to each well and the plates will be incubated at room temperature for 15 min. and then read for 15 sec. for the luciferase activity", "values": [{"molecule": "Cc1cc(C)c(S(=O)(=O)N2CCC(C(=O)NCc3ccc(Cl)cc3Cl)CC2)c(C)c1", "Potency": "inconclusive [inhibitor, partial curve]"}, {"molecule": "CCOC(=O)c1c(-c2ccc(C)o2)csc1NC(=O)CSc1nnc(C)s1", "Potency": "inconclusive [inhibitor, partial curve]"}, {"molecule": "Nc1c(Cl)nc(-c2ccccc2)nc1Cl", "Potency": "inconclusive [inhibitor, single point]"}, {"molecule": "Cn1c(-c2ccccc2O)cc2ccccc21", "activity change, negative = inhibition": "inactive: -9.23%"}, {"molecule": "COc1ccc(/C=C/C(=O)c2cc(F)ccc2OC(=O)c2ccccc2OC)cc1OC", "Potency": "inconclusive [inhibitor, single point]"}, {"molecule": "COC(=O)C1=C(C(=O)OC)C2OC1c1cc3ccccc3cc12", "Potency": "inconclusive [inhibitor, single point]"}, {"molecule": "COc1cccc(NC(=O)c2ccccc2-c2nc(-c3ccccc3)no2)c1", "Potency": "inconclusive [inhibitor, single point]"}, {"molecule": "COc1ccccc1Oc1nc(-c2cccnc2)nc2ccccc12", "activity change, negative = inhibition": "inactive: -18%"}, {"molecule": "COc1cc(OC)cc(C(=O)N[C@H](C(=O)Nc2cccc(S(=O)(=O)N3CCCC3)c2)C(C)C)c1", "Potency": "inconclusive [inhibitor, single point]"}, {"molecule": "C=CCNC(=O)C1CC(=O)N(c2ccc(OCc3ccccc3Cl)cc2)C1", "note": "(stereo unspecified)", "activity change, negative = inhibition": "inactive: -1.27%"}, {"molecule": "Cc1ccc2nc(Cl)c(/C=N/n3c(C)nnc3C)cc2c1", "activity change, negative = inhibition": "inactive: 12%"}, {"molecule": "CCCCc1cc(=O)oc2cc(C)cc(OC(C)C(=O)NCc3ccncc3)c12", "note": "(stereo unspecified)", "Potency": "inconclusive [inhibitor, single point]"}, {"molecule": "CNC(=O)c1cc(Nc2nnc(-c3ccc(O)cc3)c3ccccc23)ccc1OC", "Potency": "inconclusive [inhibitor, single point]"}, {"molecule": "COc1ccccc1NC(=O)Nc1nc(CC(=O)NCc2ccc(F)cc2)cs1", "Potency": "active: 7.08 µM"}, {"molecule": "CCc1cccc(NC(=O)c2cc(S(=O)(=O)N(C)C)ccc2N2CCCC2)c1", "activity change, negative = inhibition": "inactive: -7.44%"}, {"molecule": "Cn1c2ccccc2c2nnc(SCC(=O)NC3CC3)nc21", "activity change, negative = inhibition": "inactive: 12.3%"}, {"molecule": "CC(=Nc1ccccc1)C1=C(O)COC1=O", "activity change, negative = inhibition": "inactive: 6.68%"}, {"molecule": "CC1CCCN(c2ccc(F)cc2N)C1", "note": "(stereo unspecified)", "Potency": "inconclusive [inhibitor, single point]"}, {"molecule": "Cc1ccc(S(=O)(=O)N2CCCCC2)cc1NC(=O)c1cc(F)c(F)c(F)c1F", "Potency": "inconclusive [inhibitor, single point]"}, {"molecule": "Cc1ccc(N(CC(=O)NC2CC3CCC2C3)S(C)(=O)=O)cc1C", "note": "(stereo unspecified)", "activity change, negative = inhibition": "inactive: 13.4%"}, {"molecule": "CC(C)(C)[C@H]1COC(=O)CCCC/C=C\\C[C@H](CC(=O)N(CCO)Cc2ccccc2)C(=O)N1", "activity change, negative = inhibition": "inactive: 9.98%"}, {"molecule": "CCc1cccc(C)c1NC(=O)CN(C)Cc1ccc(Br)cc1", "Potency": "inconclusive [inhibitor, single point]"}, {"molecule": "CC(C)NC(=O)c1ccc(-c2cccc(C(F)(F)F)c2)o1", "activity change, negative = inhibition": "inactive: -4.51%"}, {"molecule": "Cc1nc2ccc([N+](=O)[O-])cc2c(=O)n1Cc1cccc(Br)c1", "Potency": "inconclusive [inhibitor, single point]"}, {"molecule": "O=C(c1ccc(-c2ccccc2)cc1)C1CCCN(Cc2ccncc2)C1", "note": "(stereo unspecified)", "Potency": "inconclusive [inhibitor, single point]"}, {"molecule": "Cc1n[nH]c(C)c1Sc1ccccc1N", "activity change, negative = inhibition": "inactive: 11.9%"}, {"molecule": "CCOc1ccc(S(=O)(=O)Nc2ccc(C(=O)NCC3(N4CCCCC4)CCCCC3)cc2)cc1", "activity change, negative = inhibition": "inconclusive: -53.1% [inhibitor]"}, {"molecule": "Cc1cccc(C(=O)N[C@H](C(=O)Nc2ncc(C)s2)C(C)C)c1", "Potency": "inconclusive [inhibitor, single point]"}, {"molecule": "Cc1ccccc1-c1nc(CS(=O)CC(=O)NC2CCCC2)c(C)o1", "note": "(stereo unspecified)", "activity change, negative = inhibition": "inactive: 2.86%"}, {"molecule": "Nc1c(C(=O)OCC2CCCO2)c2nc3ccccc3nc2n1-c1ccc2c(c1)OCCO2", "note": "(stereo unspecified)", "Potency": "inconclusive [inhibitor, single point]"}, {"molecule": "O=C(NCCCc1ccccc1)C1CCN(S(=O)(=O)c2ccc(F)cc2)CC1", "Potency": "inconclusive [inhibitor, single point]"}, {"molecule": "COc1ccc(OC)c(NC(=O)c2cc(-c3c(C)cc(C)cc3O)n[nH]2)c1", "Potency": "active: 10 µM"}, {"molecule": "O=C(O)C[C@H]1c2cc(C(F)(F)F)ccc2S(=O)(=O)N1C1CCCC1", "Potency": "inconclusive [inhibitor, single point]"}, {"molecule": "CCNC(=O)c1cc2c(=O)n3cccc(C)c3nc2n(CCc2ccccc2)c1=N", "Potency": "inconclusive [inhibitor, single point]"}, {"molecule": "COc1ccc(NC(=O)NCCc2ccc(Cl)cc2)cc1OC", "Potency": "inconclusive [inhibitor, full curve]"}, {"molecule": "N/C(=N\\OC(=O)CCC1CCCC1)c1ccncc1", "activity change, negative = inhibition": "inactive: 10.8%"}, {"molecule": "O=S(=O)(c1ccccc1)N1CCN(Cc2ccccc2)c2ccccc21", "Potency": "inconclusive [inhibitor, single point]"}, {"molecule": "COc1ccccc1C1NC(=O)NC(C)=C1C(=O)OC1CCCC(C)C1", "note": "(stereo unspecified)", "Potency": "inconclusive [inhibitor, single point]"}, {"molecule": "COc1cnc(-c2ccccn2)nc1N(C)C", "Potency": "inconclusive [inhibitor, single point]"}, {"molecule": "Cc1cc(C)c2cc(C(O)c3nnnn3Cc3ccccc3)c(=O)[nH]c2c1", "note": "(stereo unspecified)", "activity change, negative = inhibition": "inactive: -10.1%"}, {"molecule": "CC(SCc1ccccc1)C(=O)N/N=C/c1ccc(OCC(=O)NCc2ccco2)cc1", "note": "(stereo unspecified)", "Potency": "active: 11.2 µM"}, {"molecule": "CN1CCN(CCCNC(=O)c2ccc(/C=C3\\Oc4ccccc4N(Cc4ccccc4F)C3=O)cc2)CC1", "Potency": "active: 14.1 µM"}, {"molecule": "COc1ccc(CC2C(=O)NC(C)C(=O)N(C)C3Cc4ccc(cc4)Oc4cc(ccc4O)CC(C(=O)NC(C)C(=O)NC(C)C(=O)N2C)N(C)C3=O)cc1", "note": "(stereo unspecified)", "Potency": "inconclusive [inhibitor, partial curve]"}, {"molecule": "Cc1cccc(-c2noc(CN(C(=O)c3ccc4c(c3)OCO4)C(C)C)n2)c1", "Potency": "inconclusive [inhibitor, single point]"}, {"molecule": "COc1ccc(CNC(=O)CCc2c(C)nc3cc(-c4ccccc4OC)nn3c2C)cc1", "Potency": "inconclusive [inhibitor, full curve, poor fit]"}, {"molecule": "O=C1c2ccccc2C(=O)c2c1cccc2N1CCCC1", "Potency": "inconclusive [inhibitor, full curve]"}]}]}
